Data published in PubChem BioAssay AID1460 (National Center for Advancing Translational Sciences (NCATS), 2008).
The whole screen tested about 270,000 compounds, of which about 5,800 (2.1%) were called active. The shares of active, inactive and inconclusive entries below differ from those in the screen. Calls come from the whole dose curve; as a rule, active = well fitted inhibition curve with a large enough effect; inconclusive = small, poorly fitted or top-dose-only effect; inactive = flat fitted curve, though single readings scatter. Potencies of inconclusive entries are doubtful fits and often do not repeat.

What follows are compounds tested against Microtubule-associated protein tau (Homo sapiens) (UniProt P10636) (assay: qHTS for Inhibitors of Tau Fibril Formation, Thioflavin T Binding). Details: recombinant tau K18 P301L (four-repeat tau fragment), heparin-induced fibrillization, ThT fluorescence; series mostly up to 57.4 µM; activity, negative = inhibition: at the top concentration.
In short: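 In this qHTS, human K18 P301L tau is incubated with compound and heparin for 6 hr at 37 C, and Thioflavin T fluorescence then reports fibril load.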
% is set by controls: 0 for no effect and ±100 for the full control effect; potency is the fitted concentration of half-maximal effect; tags give direction and shape of the fitted curve.
Note: nearly all actives have a fitted effect of over 55% in size.

Sequence of UniProt P10636 (P10636 whole entry, looked up, the tested form may be a part): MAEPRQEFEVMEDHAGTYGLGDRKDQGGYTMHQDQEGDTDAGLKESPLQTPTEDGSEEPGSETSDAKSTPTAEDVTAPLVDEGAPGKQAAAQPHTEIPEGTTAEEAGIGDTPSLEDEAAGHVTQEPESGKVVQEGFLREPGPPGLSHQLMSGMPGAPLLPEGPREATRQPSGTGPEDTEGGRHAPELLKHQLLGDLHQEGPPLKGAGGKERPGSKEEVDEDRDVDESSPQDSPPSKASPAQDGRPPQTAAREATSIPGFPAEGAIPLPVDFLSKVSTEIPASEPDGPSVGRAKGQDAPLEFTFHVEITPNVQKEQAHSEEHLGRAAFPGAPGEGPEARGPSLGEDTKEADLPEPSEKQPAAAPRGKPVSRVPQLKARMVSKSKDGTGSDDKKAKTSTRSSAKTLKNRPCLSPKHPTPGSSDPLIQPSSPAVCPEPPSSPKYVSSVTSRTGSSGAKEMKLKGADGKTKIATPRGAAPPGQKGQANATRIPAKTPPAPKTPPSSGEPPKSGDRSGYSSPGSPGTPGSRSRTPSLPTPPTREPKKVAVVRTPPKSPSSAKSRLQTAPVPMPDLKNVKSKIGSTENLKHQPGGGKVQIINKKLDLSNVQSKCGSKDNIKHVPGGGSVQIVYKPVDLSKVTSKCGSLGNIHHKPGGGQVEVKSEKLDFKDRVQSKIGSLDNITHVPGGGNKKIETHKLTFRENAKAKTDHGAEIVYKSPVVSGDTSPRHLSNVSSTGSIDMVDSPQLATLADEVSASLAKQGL

SMILES | Potency | activity, negative = inhibition
Cc1cc(C)cc(NC(=S)Nc2cccc3cnccc23)c1 | inconclusive: 17.8 µM [inhibitor, partial curve] | 
COc1cc2nc(N(C)C)nc(N)c2cc1OC |  | inactive: -13.6%
Cc1ccc(-n2c(-c3ccncc3)n[nH]c2=S)cc1C |  | inactive: -4.47%
O=C(Cn1cc(S(=O)(=O)N2CCN(c3ccccc3F)CC2)c2ccccc2c1=O)NCCCN1CCCCCC1 | inconclusive: 28.2 µM [inhibitor, partial curve] | 
O=C(NN=C1CCCC1)c1cc(-c2ccccc2)n[nH]1 | inconclusive: 11.2 µM [inhibitor, partial curve] | 
O=C(Nc1cccc(-c2nc3ccccc3[nH]2)c1)c1c(F)cccc1F | inconclusive: 4.47 µM [inhibitor, full curve, poor fit] | 
O=C(N/N=C/c1c[nH]c2ccccc12)c1ccn[nH]1 | inconclusive: 35.5 µM [inhibitor, single point] | 
CN1C2C=C3C(C#N)=C(N)C(C#N)(C#N)[C@@H](c4cccc(F)c4)[C@@H]3C1CC2 (stereo partly drawn) | active: 20 µM | 
Cc1cc(C)c2cc(C(=O)N3CCC(Cc4ccccc4)CC3)[nH]c2c1 | inconclusive: 3.55 µM [inhibitor, partial curve] | 
Cc1ccc(C)c(CSc2nnc(-c3cccs3)n2Cc2ccco2)c1 | inconclusive: 20 µM [inhibitor, partial curve] | 
COC(=O)C1CSc2[nH]c(=O)sc2C1c1ccc(OC)c(OC)c1 (stereo not drawn) |  | inactive: -17.2%
Cc1ccc(S(=O)(=O)Nc2ccc3nc(-c4cccn4C)[nH]c3c2)cc1 | inconclusive: 8.91 µM [inhibitor, partial curve] | 
COc1cc2c(cc1NC(=S)Nc1ccccc1C)oc1ccccc12 | inconclusive: 11.2 µM [inhibitor, partial curve] | 
CCCCN1C2=C(C(=O)CCC2)C(c2ccc(Cl)c(Cl)c2)C2=C1c1ccccc1C2=O (stereo not drawn) | inconclusive: 11.2 µM [inhibitor, partial curve] | 
NCCCC[C@@H](N)C(=O)O |  | inactive: 5.22%
COCCN=c1scc(-c2cccs2)n1/N=C(\C)c1ccco1 | inconclusive: 15.8 µM [inhibitor, partial curve] | 
CCCCNC(=S)NNC(=O)c1csc(CC)c1 |  | inactive: -3.86%
COc1ccccc1CNS(=O)(=O)c1ccc2c(c1)NC(=O)C(C)C(=O)N2 (stereo not drawn) |  | inactive: -10.4%
Cc1c(OCc2ccc(C(=O)O)o2)ccc2c3c(c(=O)oc12)CCC3 | inconclusive: 6.31 µM [inhibitor, partial curve] | 
Cc1cc(OCC(=O)Nc2ccc3c(c2)OCCO3)ccc1Cl | inconclusive: 6.31 µM [inhibitor, partial curve] | 
CCOC(=O)N1CCC(=NNc2ccc(S(N)(=O)=O)cc2[N+](=O)[O-])CC1 | active: 5.01 µM | 
Cc1ccc(Cn2cc(CCC(=O)NC3CCC(C)CC3)c3ccccc32)cc1 (stereo not drawn) |  | inactive: -1.96%
CC(=O)c1ccc(NC(=O)CN2C(=O)CCc3ccccc32)cc1 | inconclusive: 5.01 µM [inhibitor, partial curve] | 

SMILES | Potency | activity, negative = inhibition
O=C1CCCC2=C1C(c1ccc(O)c(O)c1)Nc1ccc3ncccc3c12 (stereo not drawn) | inconclusive: 14.1 µM [inhibitor, partial curve] | 
CC1CCCCC1NC(=O)CSc1nnc(-c2ccccc2)n1N (stereo not drawn) |  | inactive: 3.21%
CCC(=O)Nc1ccc(NC(=O)c2cc3ccccc3o2)cc1 | inconclusive: 6.31 µM [inhibitor, partial curve] | 
Cc1ccc(/C=C/C(=O)Nc2ccc(S(=O)(=O)Nc3ncccn3)cc2)cc1 | inconclusive: 14.1 µM [activator, partial curve] | 
Cc1ccccc1NS(=O)(=O)c1ccc2[nH]cc(C(=O)N(C)Cc3ccco3)c(=O)c2c1 |  | inactive: -4.06%
COC(=O)c1c(Cl)c2n3ccccc3c(C)c(-c3ccccc3)c-2c1C(=O)OC | active: 7.94 µM | 
CCCSc1nnc(-c2cnn(-c3ccccc3)c2-n2cccc2)n1C |  | inactive: -16.4%
CCOc1ccc(N(C)C(=O)CS(=O)(=O)c2cccc3nsnc23)cc1 | inconclusive: 15.8 µM [inhibitor, partial curve, poor fit] | 
O=C(Oc1ccc(-c2cnc3ccccc3n2)cc1)c1cccc([N+](=O)[O-])c1 | inconclusive: 3.98 µM [inhibitor, full curve] | 
Cc1ccc(C2=NNC(=Nc3ccc(F)cc3)SC2)cc1 | active: 15.8 µM | 
CCCCCCCC(=O)OCC(=O)[C@@]1(O)CC[C@H]2[C@@H]3CCC4=CC(=O)CC[C@]4(C)[C@H]3[C@@H](O)C[C@@]21C | inconclusive: 7.94 µM [inhibitor, full curve, poor fit] | 
COc1ccc(NC(=O)C(=O)N/N=C/c2cccnc2)c(OC)c1 | inconclusive: 28.2 µM [inhibitor, partial curve] | 
Fc1ccc(NC(=S)N2CCc3[nH]c4ccccc4c3C2)cc1 | inconclusive: 14.1 µM [inhibitor, partial curve, poor fit] | 
COc1cccc(-c2nc(CS(=O)(=O)CC(=O)N3CCc4ccccc4C3)c(C)o2)c1 | inconclusive: 28.2 µM [inhibitor, partial curve] | 
COc1cc(C(=O)Nc2sc3c(c2C#N)CCN(C(C)=O)C3)cc(OC)c1OC | inconclusive: 20 µM [inhibitor, partial curve] | 
CCc1ccc(NCc2cc3ccc(OC)cc3n(CC(=O)Nc3ccc(F)cc3F)c2=O)cc1 |  | inactive: 8.06%
CCCCC(=O)Nc1nc(C)c(-c2csc(Nc3ccc(Cl)cc3)n2)s1 | inconclusive: 7.94 µM [inhibitor, partial curve] | 
C=CCn1c(O)c(N=NC(=S)Nc2cccc(OC)c2)c2ccccc21 | inconclusive: 2.51 µM [inhibitor, full curve] | 
Cc1nn(-c2ccccc2)c2c1N(CCCC(=O)NCc1ccc(N(C)C)cc1)C(=O)CS2 | inconclusive: 20 µM [inhibitor, single point] | 
O=C1CCC(=O)N1c1ccc(-c2nc3sc4c(c3c(=O)o2)CCC4)cc1 | inconclusive: 11.2 µM [inhibitor, partial curve] | 
COc1cc(C2Nc3cccc4cccc(c34)N2)ccc1OC(C)=O | inconclusive: 4.47 µM [inhibitor, partial curve] | 
Cc1ccccc1-n1c(=O)cc(N2CCN(Cc3ccccc3)CC2)[nH]c1=O |  | inactive: 6.04%
COc1ccc(-c2nc3c(c4c2CC(C)OC4)CN(CCC(C)C)CC3)cc1 (stereo not drawn) |  | inactive: -10% [at 11.5 µM]

SMILES | Potency | activity, negative = inhibition
CCn1cc(Br)c(C(=O)Nc2ccc(C(=O)OC(C)C)cc2)n1 | inconclusive: 17.8 µM [inhibitor, partial curve, poor fit] | 
COc1ccccc1N1CCN(C(=O)C(CCSC)NS(=O)(=O)c2ccc3c(c2)oc(=O)n3C)CC1 (stereo not drawn) |  | inactive: 3.69%
O=C(Nc1c2c(nc3ccccc13)CCCC2)c1ccccc1F | inconclusive: 14.1 µM [inhibitor, partial curve] | 
COc1ccc2nc3oc(C(=O)N4CCN(c5cc(C)ccc5C)CC4)cc3cc2c1 | inconclusive: 5.62 µM [inhibitor, partial curve, poor fit] | 
O=c1cc(-c2ccc(Cl)c(Cl)c2)[nH][nH]1 | active: 3.16 µM | 
CC(C)(CNC(=O)c1ccc([N+](=O)[O-])c(Cl)c1)CNC(=O)c1ccc([N+](=O)[O-])c(Cl)c1 | inconclusive: 12.6 µM [inhibitor, partial curve] | 
CCOC(=O)c1c(-c2cccc([N+](=O)[O-])c2)csc1NC(=O)C1CC1 | inconclusive: 14.1 µM [inhibitor, partial curve] | 
CCOC(=O)c1ccc(-n2c(CCC(=O)O)ccc2-c2ccc(Br)cc2)cc1 | inconclusive: 17.8 µM [inhibitor, partial curve] | 
COc1ccc(Cn2c(SCC(=O)NCc3ccc(Cl)cc3)nc3ccsc3c2=O)cc1 |  | inactive: 6.65%
O=C(CC(c1cccs1)N1Cc2ccccc2C1=O)Nc1ccc(F)c(F)c1 (stereo not drawn) | inconclusive: 2.82 µM [activator, full curve, poor fit] | 
COc1ccc(N2C(=O)CS(=O)(=O)C23C(=O)N(Cc2cccc(F)c2)c2ccccc23)cc1OC (stereo not drawn) | inconclusive: 15.8 µM [inhibitor, single point] | 
CC(C)n1c(=S)[nH]c2cc(Cl)ccc21 | inconclusive: 25.1 µM [inhibitor, partial curve] | 
Cc1ccc(OCCn2nc3ccccc3n2)c(C)c1 | inconclusive: 25.1 µM [inhibitor, single point] | 
S=c1[nH]nc(-c2cccnc2)n1/N=C/C(Cl)=C\c1ccccc1 | inconclusive: 11.2 µM [inhibitor, partial curve] | 
COc1cc2c(cc1OC)C1=C(C#N)COCN1CC2 | inconclusive: 25.1 µM [inhibitor, partial curve] | 
CCC(C)NC(=S)Nc1ccccc1 (stereo not drawn) |  | inactive: -10.3%
CCN(CC)c1ccc(C=C2C(=O)OC(c3ccccc3)OC2=O)cc1 (stereo not drawn) |  | inactive: 6.37%
COc1cccc(CNS(=O)(=O)c2ccc3c(c2)CCN3C(=O)C2CCC2)c1 | inconclusive: 1.41 µM [inhibitor, full curve, poor fit] | 
N#CC1=C(N)Oc2n[nH]c(-c3ccc(F)cc3)c2C1c1cccc(OC(=O)N2CCOCC2)c1 (stereo not drawn) | inconclusive: 39.8 µM [inhibitor, single point] | 
Cc1nn2c(=O)cc(COC(=O)c3ccco3)nc2s1 |  | inactive: -4.97%
Cc1ccc(NC(=S)N/N=C2/CCCCc3ccccc32)cc1 | inconclusive: 11.2 µM [inhibitor, partial curve] | 
Cc1ccc(C(=O)c2oc3ccccc3c2N)cc1 | inconclusive: 17.8 µM [inhibitor, partial curve] | 
